This is one part of the list.
Experiments:
Assay in all cases: glycan array binding signal (z-score within array); higher = stronger binding
Conditions in all cases: glycan notation: IUPAC condensed, linker removed
[1] = target: Neu5Ac(a2-3)Gal(b1-4)GlcNAc(b1-3)Gal(b1-4)GlcNAc(b1-3)Gal(b1-4)GlcNAc(b1-2)Man(a1-3)[Neu5Ac(a2-3)Gal(b1-4)GlcNAc(b1-3)Gal(b1-4)GlcNAc(b1-3)Gal(b1-4)GlcNAc(b1-2)Man(a1-6)]GalNAc
In short: (§1)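 Glycan array binding is given as a within-array Z-score, which can be read as non-binding when negative. The arrays, 3228 of them, came from the Consortium for Functional Glycomics database and were retained only where the protein sequence was available. Z-scores were averaged across arrays of the same protein sequence at different concentrations or buffers and across linkers.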

[2] = target: Neu5Ac(a2-3)Gal(b1-4)GlcNAc(b1-3)Gal(b1-4)GlcNAc(b1-3)GalNAc
In short: as §1

[3] = target: Neu5Ac(a2-3)Gal(b1-4)GlcNAc(b1-3)Gal(b1-4)GlcNAc(b1-3)[Neu5Ac(a2-3)Gal(b1-4)GlcNAc(b1-3)Gal(b1-4)GlcNAc(b1-6)]GalNAc
In short: as §1

[4] = target: Neu5Ac(a2-3)Gal(b1-4)GlcNAc(b1-3)Gal(b1-4)GlcNAc(b1-6)[Gal(b1-3)]GalNAc
In short: as §1

[5] = target: Neu5Ac(a2-3)Gal(b1-4)GlcNAc(b1-3)Gal(b1-4)[Fuc(a1-3)]GlcNAc
In short: as §1

[6] = target: Neu5Ac(a2-3)Gal(b1-4)GlcNAc(b1-3)GalNAc
In short: as §1

[7] = target: Neu5Ac(a2-3)Gal(b1-4)GlcNAc(b1-3)[Neu5Ac(a2-3)Gal(b1-4)GlcNAc(b1-6)]GalNAc
In short: as §1

[8] = target: Neu5Ac(a2-3)Gal(b1-4)GlcNAc(b1-6)GalNAc
In short: as §1

[9] = target: Neu5Ac(a2-3)Gal(b1-4)GlcNAc(b1-6)[Gal(b1-3)]GalNAc
In short: as §1

[10] = target: Neu5Ac(a2-3)Gal(b1-4)GlcNAc(b1-6)[Neu5Ac(a2-3)Gal(b1-3)]GalNAc
In short: as §1

[11] = target: Neu5Ac(a2-3)Gal(b1-4)GlcNAc6S
In short: as §1

[12] = target: Neu5Ac(a2-3)Gal(b1-4)[Fuc(a1-3)]GlcNAc
In short: as §1

[13] = target: Neu5Ac(a2-3)Gal(b1-4)[Fuc(a1-3)]GlcNAc(b1-2)Man
In short: as §1

[14] = target: Neu5Ac(a2-3)Gal(b1-4)[Fuc(a1-3)]GlcNAc(b1-3)Gal
In short: as §1

[15] = target: Neu5Ac(a2-3)Gal(b1-4)[Fuc(a1-3)]GlcNAc(b1-3)Gal(b1-4)GlcNAc
In short: as §1

[16] = target: Neu5Ac(a2-3)Gal(b1-4)[Fuc(a1-3)]GlcNAc(b1-3)Gal(b1-4)[Fuc(a1-3)]GlcNAc(b1-3)Gal(b1-4)[Fuc(a1-3)]GlcNAc
In short: as §1

[17] = target: Neu5Ac(a2-3)Gal(b1-4)[Fuc(a1-3)]GlcNAc(b1-3)GalNAc
In short: as §1

[18] = target: Neu5Ac(a2-3)Gal(b1-4)[Fuc(a1-3)]GlcNAc(b1-6)[Gal(b1-3)]GalNAc
In short: as §1

[19] = target: Neu5Ac(a2-3)Gal(b1-4)[Fuc(a1-3)]GlcNAc(b1-6)[Neu5Ac(a2-3)Gal(b1-3)]GalNAc
In short: as §1

[20] = target: Neu5Ac(a2-3)Gal(b1-4)[Fuc(a1-3)]GlcNAc6S
In short: as §1

[21] = target: Neu5Ac(a2-3)Gal6S(b1-4)GlcNAc
In short: as §1

[22] = target: Neu5Ac(a2-3)Gal6S(b1-4)[Fuc(a1-3)]GlcNAc
In short: as §1

Neu5Ac(a2-3)GalNAc = target: Neu5Ac(a2-3)GalNAc
In short: as §1

[23] = target: Neu5Ac(a2-3)GalNAc(b1-4)GlcNAc
In short: as §1

[24] = target: Neu5Ac(a2-3)[GalNAc(b1-4)]Gal(b1-4)Glc
In short: as §1

[25] = target: Neu5Ac(a2-3)[GalNAc(b1-4)]Gal(b1-4)GlcNAc
In short: as §1

[26] = target: Neu5Ac(a2-3)[GalNAc(b1-4)]Gal(b1-4)GlcNAc(b1-3)GalNAc
In short: as §1

[27] = target: Neu5Ac(a2-3)[Neu5Ac(a2-6)]GalNAc
In short: as §1

Neu5Ac(a2-6)Gal = target: Neu5Ac(a2-6)Gal
In short: as §1

[28] = target: Neu5Ac(a2-6)Gal(b1-3)GlcNAc(b1-3)[Gal(b1-4)GlcNAc(b1-6)]Gal(b1-4)Glc
In short: as §1

Neu5Ac(a2-6)Gal(b1-4)Glc = target: Neu5Ac(a2-6)Gal(b1-4)Glc
In short: as §1

[29] = target: Neu5Ac(a2-6)Gal(b1-4)GlcNAc
In short: as §1

[30] = target: Neu5Ac(a2-6)Gal(b1-4)GlcNAc(b1-2)Man
In short: as §1

[31] = target: Neu5Ac(a2-6)Gal(b1-4)GlcNAc(b1-2)Man(a1-3)Man(b1-4)GlcNAc(b1-4)GlcNAc
In short: as §1

[32] = target: Neu5Ac(a2-6)Gal(b1-4)GlcNAc(b1-2)Man(a1-3)[Gal(b1-4)GlcNAc(b1-2)Man(a1-6)]Man(b1-4)GlcNAc(b1-4)GlcNAc
In short: as §1

[33] = target: Neu5Ac(a2-6)Gal(b1-4)GlcNAc(b1-2)Man(a1-3)[GlcNAc(b1-2)Man(a1-6)]Man(b1-4)GlcNAc(b1-4)GlcNAc
In short: as §1

[34] = target: Neu5Ac(a2-6)Gal(b1-4)GlcNAc(b1-2)Man(a1-3)[GlcNAc(b1-2)Man(b1-4)GlcNAc(b1-2)Man(a1-6)]Man(b1-4)GlcNAc(b1-4)GlcNAc
In short: as §1

[35] = target: Neu5Ac(a2-6)Gal(b1-4)GlcNAc(b1-2)Man(a1-3)[GlcNAc(b1-4)][Neu5Ac(a2-6)Gal(b1-4)GlcNAc(b1-2)Man(a1-6)]Man(b1-4)GlcNAc(b1-4)GlcNAc
In short: as §1

[36] = target: Neu5Ac(a2-6)Gal(b1-4)GlcNAc(b1-2)Man(a1-3)[Man(a1-6)]Man(b1-4)GlcNAc(b1-4)GlcNAc
In short: as §1

[37] = target: Neu5Ac(a2-6)Gal(b1-4)GlcNAc(b1-2)Man(a1-3)[Neu5Ac(a2-3)Gal(b1-4)GlcNAc(b1-2)Man(a1-6)]Man(b1-4)GlcNAc(b1-4)GlcNAc
In short: as §1

[38] = target: Neu5Ac(a2-6)Gal(b1-4)GlcNAc(b1-2)Man(a1-3)[Neu5Ac(a2-6)Gal(b1-4)GlcNAc(b1-2)Man(a1-6)]Man(b1-4)GlcNAc(b1-4)GlcNAc
In short: as §1

[39] = target: Neu5Ac(a2-6)Gal(b1-4)GlcNAc(b1-2)Man(a1-3)[Neu5Ac(a2-6)Gal(b1-4)GlcNAc(b1-2)Man(a1-6)]Man(b1-4)GlcNAc(b1-4)[Fuc(a1-6)]GlcNAc
In short: as §1

[40] = target: Neu5Ac(a2-6)Gal(b1-4)GlcNAc(b1-2)Man(a1-6)Man(b1-4)GlcNAc(b1-4)GlcNAc
In short: as §1

[41] = target: Neu5Ac(a2-6)Gal(b1-4)GlcNAc(b1-2)Man(a1-6)[Gal(b1-4)GlcNAc(b1-2)Man(a1-3)]Man(b1-4)GlcNAc(b1-4)GlcNAc
In short: as §1

[42] = target: Neu5Ac(a2-6)Gal(b1-4)GlcNAc(b1-2)Man(a1-6)[GlcNAc(b1-2)Man(a1-3)]Man(b1-4)GlcNAc(b1-4)GlcNAc
In short: as §1

B1: HPAIIITrx (Helix pomatia), Q1KM18 (protein)
chain: MLFVTIISLGLLAIVHGQCALKTIAFSAAIDREQTFDANQVVIYDIVITNHGNAYDNSTGLFTAPVDGMYSFQLNLLTIKEKEGWLELVHNGQLKVSVYAKQDSTYDSSSNSVIIKMKEGDRVNVRAHKKSGLFGRDDELYNTFSGHFLSGL
glycan array binding signal (z-score) [1]: 1.93 | glycan array binding signal (z-score) [2]: -0.327 | glycan array binding signal (z-score) [3]: -0.156 | glycan array binding signal (z-score) [4]: -0.161 | glycan array binding signal (z-score) [5]: -0.291 | glycan array binding signal (z-score) [6]: -0.361 | glycan array binding signal (z-score) [7]: -0.41 | glycan array binding signal (z-score) [8]: -0.314 | glycan array binding signal (z-score) [9]: -0.463 | glycan array binding signal (z-score) [10]: -0.501 | glycan array binding signal (z-score) [11]: -0.337 | glycan array binding signal (z-score) [12]: -0.468 | glycan array binding signal (z-score) [13]: -0.22 | glycan array binding signal (z-score) [14]: -0.449 | glycan array binding signal (z-score) [15]: -0.166 | glycan array binding signal (z-score) [16]: 0.089 | glycan array binding signal (z-score) [17]: -0.151 | glycan array binding signal (z-score) [18]: 0.298 | glycan array binding signal (z-score) [19]: 0.008 | glycan array binding signal (z-score) [20]: -0.453 | glycan array binding signal (z-score) [21]: -0.114 | glycan array binding signal (z-score) [22]: -0.366 | glycan array binding signal (z-score) (Neu5Ac(a2-3)GalNAc): -0.343 | glycan array binding signal (z-score) [23]: -0.416 | glycan array binding signal (z-score) [24]: -0.432 | glycan array binding signal (z-score) [25]: -0.457 | glycan array binding signal (z-score) [26]: 0.26 | glycan array binding signal (z-score) [27]: -0.355 | glycan array binding signal (z-score) (Neu5Ac(a2-6)Gal): -0.412 | glycan array binding signal (z-score) [28]: -0.431 | glycan array binding signal (z-score) (Neu5Ac(a2-6)Gal(b1-4)Glc): -0.279 | glycan array binding signal (z-score) [29]: -0.355 | glycan array binding signal (z-score) [30]: -0.286 | glycan array binding signal (z-score) [31]: -0.231 | glycan array binding signal (z-score) [32]: -0.435 | glycan array binding signal (z-score) [33]: -0.166 | glycan array binding signal (z-score) [34]: -0.19 | glycan array binding signal (z-score) [35]: -0.402 | glycan array binding signal (z-score) [36]: -0.533 | glycan array binding signal (z-score) [37]: -0.451 | glycan array binding signal (z-score) [38]: -0.278 | glycan array binding signal (z-score) [39]: -0.292 | glycan array binding signal (z-score) [40]: -0.31 | glycan array binding signal (z-score) [41]: 0.642 | glycan array binding signal (z-score) [42]: -0.492

— the supplement of paper PMC8728848
